Laboratory results as given in PubChem BioAssay (NCI).
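Assay format: 96-well plates, 48-hour exposure. Here, GI50 denotes the concentration required for 50% inhibition of growth. TGI denotes the concentration required for complete inhibition of growth.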

Tested on: NCI-H322M lung
Experiment: NCI anticancer screen, dose series, 48 h

SMILES	GI50 [µM]	TGI [µM]
COc1cc(/C=C/C(=O)c2cnn(-c3cc(=O)[nH]c4ccc(Br)cc34)c2C)cc(OC)c1OC	2.94	12.7
O=C(Nc1ccc(F)c(Cl)c1)c1cc(-c2ccc(F)cc2F)ccc1O	2.82	23.1
